Measurements: the supplement of paper PMC12217912
The list shows a part of the results. The full chains were built here from the parent and the listed change. Inactive controls read about 0.05.

B1: TEV protease; numbered along this chain (parent)
chain: MGESLFKGPRDYNPISSSICHLTNESDGHTTSLYGIGFGPFIITNKHLFRRNNGTLVVQSLHGVFKVKDTTTLQQHLVDGRDMIIIRMPKDFPPFPQKLKFREPQREERICLVTTNFQTKSMSSMVSDTSCTFPSGDGIFWKHWIQTKDGQCGSPLVSTRDGFIVGIHSASNFTNTNNYFTSVPKNFMELLTNQEAQQWVSGWRLNADSVLWGGHKVFMVKPEEPFQPVKEATQL

Variants of: B1
Test: raw area under fraction-flipped curve 0-4 h after induction (AUC4h, not background-subtracted), DNA-recorder readout of cleavage of the substrate (dimensionless); higher = more cleavage of the substrate by the protease variant
Details: temperature: 34 °C; time window: 0-4 h after rhamnose induction
Description: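 In vivo DNA recorder in E. coli TOP10(DE3) ΔrhaA at 34 °C. Each TEVp single-site mutant (parent TEVp 0) is paired with a single-site variant of the 7-mer TEVs (canonical ENLYFQ|S). The substrate sits between flexible linkers in a Bxb1-sfGFP-TEVs-SsrA fusion, so cleavage stabilises Bxb1 and speeds flipping of a recombination array, read by NGS. The value is the raw area under the fraction-flipped curve over 0-4 h after rhamnose induction (AUC4h), with ≥20 reads per time point. It is not background-subtracted; inactive controls average about 0.047.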
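Note: Bxb1 expression induced with 0.2% (w/v) L-rhamnose at OD600 near 0.5, cultures sampled hourly, flipped fraction per protease–substrate barcode pair counted by paired-end Illumina sequencing.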

MGESLFKGPRDYNPQSSSICHLTNESDGHTTSLYGIGFGPFIITNKHLFRRNNGTLVVQSLHGVFKVKDTTTLQQHLVDGRDMIIIRMPKDFPPFPQKLKFREPQREERICLVTTNFQTKSMSSMVSDTSCTFPSGDGIFWKHWIQTKDGQCGSPLVSTRDGFIVGIHSASNFTNTNNYFTSVPKNFMELLTNQEAQQWVSGWRLNADSVLWGGHKVFMVKPEEPFQPVKEATQL [I15Q]
area with substrate ENLYFQA: 0.0762
area with substrate ENLYFQC: 0.1
area with substrate ENLYFQD: 0.0805
area with substrate ENLYFQF: 0.0532
area with substrate ENLYFQG: 0.0954
area with substrate ENLYFQH: 0.0808
area with substrate ENLYFQI: 0.0592
area with substrate ENLYFQK: 0.056
area with substrate ENLYFQL: 0.0607
area with substrate ENLYFQM: 0.084
area with substrate ENLYFQN: 0.0621
area with substrate ENLYFQP: 0.0472
area with substrate ENLYFQR: 0.0518
area with substrate ENLYFQS: 0.0957
area with substrate ENLYFQT: 0.0495
area with substrate ENLYFQV: 0.0368
area with substrate ENLYFQW: 0.0568
area with substrate ENLYFQY: 0.096

MGESLFKGPRDYNPKSSSICHLTNESDGHTTSLYGIGFGPFIITNKHLFRRNNGTLVVQSLHGVFKVKDTTTLQQHLVDGRDMIIIRMPKDFPPFPQKLKFREPQREERICLVTTNFQTKSMSSMVSDTSCTFPSGDGIFWKHWIQTKDGQCGSPLVSTRDGFIVGIHSASNFTNTNNYFTSVPKNFMELLTNQEAQQWVSGWRLNADSVLWGGHKVFMVKPEEPFQPVKEATQL [I15K]
area with substrate ENLYFQA: 0.0712
area with substrate ENLYFQC: 0.0798
area with substrate ENLYFQD: 0.0553
area with substrate ENLYFQG: 0.0669
area with substrate ENLYFQH: 0.0809
area with substrate ENLYFQI: 0.0676
area with substrate ENLYFQK: 0.057
area with substrate ENLYFQL: 0.0446
area with substrate ENLYFQM: 0.0685
area with substrate ENLYFQN: 0.0663
area with substrate ENLYFQR: 0.0566
area with substrate ENLYFQS: 0.0673
area with substrate ENLYFQT: 0.0423
area with substrate ENLYFQW: 0.0433
area with substrate ENLYFQY: 0.0578

MGESLFKGPRDYNPESSSICHLTNESDGHTTSLYGIGFGPFIITNKHLFRRNNGTLVVQSLHGVFKVKDTTTLQQHLVDGRDMIIIRMPKDFPPFPQKLKFREPQREERICLVTTNFQTKSMSSMVSDTSCTFPSGDGIFWKHWIQTKDGQCGSPLVSTRDGFIVGIHSASNFTNTNNYFTSVPKNFMELLTNQEAQQWVSGWRLNADSVLWGGHKVFMVKPEEPFQPVKEATQL [I15E]
area with substrate ENLYFQA: 0.0647
area with substrate ENLYFQC: 0.0843
area with substrate ENLYFQD: 0.0564
area with substrate ENLYFQE: 0.0578
area with substrate ENLYFQF: 0.074
area with substrate ENLYFQG: 0.0882
area with substrate ENLYFQH: 0.0711
area with substrate ENLYFQI: 0.0504
area with substrate ENLYFQK: 0.0506
area with substrate ENLYFQL: 0.0607
area with substrate ENLYFQM: 0.0732
area with substrate ENLYFQP: 0.0501
area with substrate ENLYFQQ: 0.0496
area with substrate ENLYFQR: 0.053
area with substrate ENLYFQS: 0.0775
area with substrate ENLYFQT: 0.0645
area with substrate ENLYFQY: 0.062

MGESLFKGPRDYNPISSSICQLTNESDGHTTSLYGIGFGPFIITNKHLFRRNNGTLVVQSLHGVFKVKDTTTLQQHLVDGRDMIIIRMPKDFPPFPQKLKFREPQREERICLVTTNFQTKSMSSMVSDTSCTFPSGDGIFWKHWIQTKDGQCGSPLVSTRDGFIVGIHSASNFTNTNNYFTSVPKNFMELLTNQEAQQWVSGWRLNADSVLWGGHKVFMVKPEEPFQPVKEATQL [H21Q]
area with substrate ENLYFQA: 0.101
area with substrate ENLYFQC: 0.119
area with substrate ENLYFQD: 0.07
area with substrate ENLYFQF: 0.0642
area with substrate ENLYFQG: 0.1
area with substrate ENLYFQH: 0.0809
area with substrate ENLYFQI: 0.057
area with substrate ENLYFQK: 0.0591
area with substrate ENLYFQL: 0.06
area with substrate ENLYFQM: 0.0828
area with substrate ENLYFQN: 0.0722
area with substrate ENLYFQP: 0.0579
area with substrate ENLYFQR: 0.0615
area with substrate ENLYFQS: 0.1
area with substrate ENLYFQT: 0.0656
area with substrate ENLYFQW: 0.0559
area with substrate ENLYFQY: 0.0961

MGESLFKGPRDYNPISSSICALTNESDGHTTSLYGIGFGPFIITNKHLFRRNNGTLVVQSLHGVFKVKDTTTLQQHLVDGRDMIIIRMPKDFPPFPQKLKFREPQREERICLVTTNFQTKSMSSMVSDTSCTFPSGDGIFWKHWIQTKDGQCGSPLVSTRDGFIVGIHSASNFTNTNNYFTSVPKNFMELLTNQEAQQWVSGWRLNADSVLWGGHKVFMVKPEEPFQPVKEATQL [H21A]
area with substrate ENLYFQA: 0.0931
area with substrate ENLYFQC: 0.118
area with substrate ENLYFQD: 0.0712
area with substrate ENLYFQF: 0.0803
area with substrate ENLYFQG: 0.119
area with substrate ENLYFQH: 0.0822
area with substrate ENLYFQI: 0.0539
area with substrate ENLYFQK: 0.058
area with substrate ENLYFQL: 0.0602
area with substrate ENLYFQM: 0.0926
area with substrate ENLYFQN: 0.0689
area with substrate ENLYFQP: 0.0572
area with substrate ENLYFQQ: 0.0746
area with substrate ENLYFQS: 0.0983
area with substrate ENLYFQT: 0.0552
area with substrate ENLYFQW: 0.0658
area with substrate ENLYFQY: 0.0613

MGESLFKGPRDYNPISSSICCLTNESDGHTTSLYGIGFGPFIITNKHLFRRNNGTLVVQSLHGVFKVKDTTTLQQHLVDGRDMIIIRMPKDFPPFPQKLKFREPQREERICLVTTNFQTKSMSSMVSDTSCTFPSGDGIFWKHWIQTKDGQCGSPLVSTRDGFIVGIHSASNFTNTNNYFTSVPKNFMELLTNQEAQQWVSGWRLNADSVLWGGHKVFMVKPEEPFQPVKEATQL [H21C]
area with substrate ENLYFQA: 0.0894
area with substrate ENLYFQD: 0.0378
area with substrate ENLYFQF: 0.0532
area with substrate ENLYFQG: 0.105
area with substrate ENLYFQN: 0.0752
area with substrate ENLYFQP: 0.0509
area with substrate ENLYFQQ: 0.0753
area with substrate ENLYFQR: 0.0557
area with substrate ENLYFQS: 0.0997
area with substrate ENLYFQT: 0.0744
area with substrate ENLYFQV: 0.0635
area with substrate ENLYFQW: 0.0631
area with substrate ENLYFQY: 0.065

MGESLFKGPRDYNPISSSIQHLTNESDGHTTSLYGIGFGPFIITNKHLFRRNNGTLVVQSLHGVFKVKDTTTLQQHLVDGRDMIIIRMPKDFPPFPQKLKFREPQREERICLVTTNFQTKSMSSMVSDTSCTFPSGDGIFWKHWIQTKDGQCGSPLVSTRDGFIVGIHSASNFTNTNNYFTSVPKNFMELLTNQEAQQWVSGWRLNADSVLWGGHKVFMVKPEEPFQPVKEATQL [C20Q]
area with substrate ENLYFQA: 0.0532
area with substrate ENLYFQC: 0.0563
area with substrate ENLYFQI: 0.0424
area with substrate ENLYFQL: 0.0441
area with substrate ENLYFQN: 0.052
area with substrate ENLYFQR: 0.0418
area with substrate ENLYFQS: 0.0547
area with substrate ENLYFQT: 0.0465
area with substrate ENLYFQV: 0.0396
area with substrate ENLYFQY: 0.0528

MGESLFKGPRDYNPISSSINHLTNESDGHTTSLYGIGFGPFIITNKHLFRRNNGTLVVQSLHGVFKVKDTTTLQQHLVDGRDMIIIRMPKDFPPFPQKLKFREPQREERICLVTTNFQTKSMSSMVSDTSCTFPSGDGIFWKHWIQTKDGQCGSPLVSTRDGFIVGIHSASNFTNTNNYFTSVPKNFMELLTNQEAQQWVSGWRLNADSVLWGGHKVFMVKPEEPFQPVKEATQL [C20N]
area with substrate ENLYFQA: 0.0517
area with substrate ENLYFQC: 0.0681
area with substrate ENLYFQD: 0.0601
area with substrate ENLYFQF: 0.046
area with substrate ENLYFQG: 0.0547
area with substrate ENLYFQH: 0.0508
area with substrate ENLYFQI: 0.0534
area with substrate ENLYFQK: 0.0459
area with substrate ENLYFQL: 0.0523
area with substrate ENLYFQM: 0.0662
area with substrate ENLYFQN: 0.0718
area with substrate ENLYFQQ: 0.0489
area with substrate ENLYFQR: 0.0494
area with substrate ENLYFQS: 0.0601
area with substrate ENLYFQT: 0.0446
area with substrate ENLYFQV: 0.0386
area with substrate ENLYFQW: 0.0567
area with substrate ENLYFQY: 0.0597
